This passage reports self-cleavage results from the RNAGym collection of RNA variant scans (doi:10.7554/elife.90254).

The source gives no read counts; variants with many changes may rest on few reads.

Sequences and labels used below:
B1: LINE1-mini (parent)
chain: GGCAGAGCUCAACACAGCGUGGCAAAGUGGCUGUGGCUAGACUGCC

Variants of B1 are the subject of this series. Briefly: self-cleavage, relative activity (ratio to wild type); higher = more cleavage; in vitro, sequencing; the parent is a self-cleaving ribozyme.
For GGUAGAGCUCAACACAGCGUGGCAAAGGGGCUGUGGCUAGACUUCC, the self-cleavage was 0.13. In the case of GGUAGAGCUCAACACAGCGUGGCAAAGUCGCUGUGGAUAGAAGGCC it was 0.04; in that of GGCCGUGCUAAACACAGCGUGGCAAAGUGGCUGUGGCUAGACUGCC, 0.03. Regarding GGUAGAGCCCAAUAAAGCGUGGCAAAGUGGCUGUGGCUAGAUUGUC, the self-cleavage came out at 0.02.

As for GGUAGAGCUCAACACAGCGUGGCAAAGUGGCUGUGACAAGACUGCC, the self-cleavage is 0.34. In the case of GGUAGAGCUCAACACAGCGUGGCAAAGUAGCUGUGGCUACACUGCC it was 0.1; in that of GGUAGAGCUCAACACAGCGUGGCAAAGUUGCUGUGGCUAGAUUGCC, 0.31. In the case of GGUAGAGCUCAACACAGCGUGGCAAAGUGGCUCUAGCUAGACUGCC it was 0; in that of GGUAGAGCUCAACACAGCGUGGCAAAGUAGCUGUGGCUAGACCGCC, 0.07. In the case of GGUAGAGCUCAACACAGCGUGGCAAAGUGGCUGAGGCUAGGCUGUC it was 0.01; in that of GGCCGCGCUCUACACAGCGUGGCAAAGUGGAUCUGGCUAUACUGCC, 0. As for GGCCGCGCUCAAAACAGCGUUGCAAAGUGUCUGUGGCUAGACUGCC, the self-cleavage stood at 0.12.

Take GGCCGAGCUCCUCACAGCGUUGCAAAGUGGCUGUGGCUCGACUGCC: the self-cleavage is 0.02.

Consider GGUAGAGCGCCACACAGCGUGGCAAAGUGGCUAUGCGUAGACUCCC, for which the self-cleavage amounted to 0.

Take GGUAGAGCUCAACACAGCGUGGCAAAGUAGCUGUGGGUAGACUGCC: the self-cleavage came to 0.01. For the variant GGCCGUGCUCAACACAGCGUGGCAAAGUGACUGUGGCUAGACUGCC, the self-cleavage was 0.01. In the case of GGUAGAGCUCAACACAGCGUGGCAAAGUGGCCGGGGCUAGACUGCC it was 0.02; in that of GGUAGAGCACAACACAGCGUGGCAAAGUGGCUGUGGCUAAACUGCC, 0.18. Take GGUAGAGCGCAACCCAGCGUUGCAAUGUGCCUGUGGCUAGACUGCC: the self-cleavage stood at 0.01. In the case of GGUAGAGCUCAACACAGCGUGGCAAAGUGGCGGUGGCUAGACUGUC it was 0.06; in that of GGCCGCGCUUAACACAGCGUGGUAAAGUGGCUGUGGCUAGACUGCC, 0.06. GGUAGAGCUCAACACAGCGUGGCAAAGUGCCUGUGGCUCGACUGCC: the self-cleavage turned out to be 0.05. In the case of GGUAGAGCUCAACACAGCGUGGCAAAGUAGCUAUGGAUAGACAGCC it was 0.04; in that of GGCCGUGCUCAACACAGCGUGGCAAAGUGGCUGUGGCUCGACUGAC, 0.03; in that of GGUAGAGCCCAAGACAGCGUGGCAAAGUGGCUGUGGGUAGACUGUC, 0.01. In the case of GGUAGAGCUCAACACAGCGUGGCAAAGUGGCUGUGGCUAGACCGAC it was 0.02.

For the variant GGUAGAGCUCAACACAGCGAGGCAAAGUGGCGGUGGCUAGACUGCC, the self-cleavage is 0.06.

As for GGCCGGGCUCAACACAGCGUGGCAAAGUGGCCGUGGCUAGACUGCC, the self-cleavage was found to be 0.3.

Consider GGUAGAGCUCAACACAGCGUGGCAAAGUCACUGUGCCUAGAAUGCC, for which the self-cleavage is 0.04. For the variant GGUAGAGCAAAACACACCGUGGCAAAGUGGUUGUGGCUAGACUGGC, the self-cleavage came out at 0.03. In the case of GGUAGAGCUCAACACAGCGGGGCAACGUGGCUGUGGCUAGACUGCC it was 0.09; in that of GGUAGAGCUCAACACAGCGUGGCAAAGUGGCUGUGACUAGACUGCA, 0.17. In the case of GGUAGAGCUCAACACAGCGUGGCAAAGUGGCUGUUGCUAGACUGCA it was 0.02; in that of GGCCGCGCUCAACACAGCGUGGCAAAGUGGCUGUGGCUUGACUGCC, 0.02; in that of GGUAGAGCUCAACACAGCGUGGCAAAGUGGCUGUGCCUAGCCUGCC, 0.04. Consider GGUAGAGCCCAACACAGCGUGGCAAAGUGGCUCUGUCUAAACUGCC, for which the self-cleavage worked out at 0.04. In the case of GGUAGAGCUCAACACAGCGUGGCAAAGUGGCUGUGGCAAGACUGCG it was 0.03; in that of GGUAGAGCACAACACAGCGUGGCAAAGUGGCUUUGGCUAGACUGCC, 0.26; in that of GGUAGAGCUCAACACAGCGUGGCAAAGUGGCUGUGGCAAGACUGGC, 0.08. In the case of GGUAGAGCUCAACACAGCGUGGCAAAGUCGCUGUGGCUAGACCGCC it was 0.03; in that of GGUAGAGCUCAACACAGCGUGGCAAAGUGUUUGGGGCUAGACUGCC, 0; in that of GGUAGAGCUCAACACAGCGUGGCAAAGUGGCUAUGGCUAGGCUGCC, 0.09. Regarding GGUAGAGCUCAACACAGCGUGGCAAAGUCGCUGUGGCUAUACUGCC, the self-cleavage came out at 0.

In the case of GGUAGAGCUCAACACAGCGUGGCAAAGUCGCUGUGGCUACACUGCC, the self-cleavage stood at 0.15.

GGUAGAGCUCAACACAGCGUGGCAAAGUUCCUGUGGCUAGACUGCC: the self-cleavage came to 0.12. In the case of GGUAGAGCUCAACACAGCGUGGCAAAGGGACUGUGGCUGGACUGCC it was 0.05; in that of GGUAGAGCUCAACACAGCGACCCAAAGUGGCUGUGGCUAGACUGCC, 0.17; in that of GGUAGAGCUCAACACAGCGUGGCAAAGGGGCUGUGGCUAGUCUGCC, 0.27. In the case of GGCCGAGCUCCACACAACCUGGCAAAAUGGCAGUGGCUAGACUGCC it was 0; in that of GGCCGCGCUCAACACAGCGUGGCAAAGUGGCUGUGUCUAGACAGCC, 0.01.

GGUAGAGCUCAACACAGCGUGGCAAAGUGGCUAUGGCAAGACUGCC: the self-cleavage is 0.14.

As to GGUAGAGCUCAACACAGCGUGGCAAAUUGGCUGUGGCGAGACUGCC, the self-cleavage was determined as 0.1. In the case of GGUAGAGCCCAACACAGCGUGGCAAAGUGGCCGUGGCUAGACUGCC it was 0.02; in that of GGUAGAGCUCAACACAGCGUGGCAAAGUGGCUGUGGCCAGACUGGC, 0.48.

Regarding GGUAGAGCUCAACACAGCGUGGCAAAGUGGCUGUGGCCAGACUGAC, the self-cleavage is 0.71. As to GGUAGAGCUCAACACAGCGCGGCAACGUGGCUGUGGCUAGACUGCC, the self-cleavage amounted to 0.06.
